Where a structure was tested more than once in an assay, its records may differ in their call.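 Single-concentration screen, 48 h exposure, 96-well plates. Endpoint: percent growth. Below 10 = active.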 Some entries of the source have several records that differ or are many. This list holds those alone. There may be further records. The screen tested this drug many times, at its own concentration, as given; each value is one run. Counts like (3×) give the number of equal values in this list.

The subject of this assay is HT29 colon. Briefly: NCI-60 one-dose screen, 48 h (100 = growth as untreated, 0 = no growth, -100 = all killed).

As to `COc1cccc2c1C(=O)c1c(O)c3c(c(O)c1C2=O)C[C@@](O)(C(=O)CO)C[C@@H]3OC1CC(N)C(O)C(C)O1` (stereo not given in full), the growth result (0.25 µM, runs of 2015) is “inactive: 29.6, 48.6, 38.4, 43 (2×), 44.1, 52.4 (2×), 41.2, 41.6 (2×), 45.8 (2×), 50.6 (3×), 48.5, 46.2, 47.8 (2×), 37.6, 37.1 (3×), 42.4 (3×), 36.8, 40.4, 48.7, 54.4, 39.3, 39 (2×), 50, 49, 46.4, 41.9 (2×), 36.4, 53.2, 48.1 (3×), 42.8 (2×), 39.9, 39.2, 43.2 (2×), 40.7, 45.4 (2×), 44.6, 38.2 (2×), 43.6 (2×), 29.4, 42.5, 47.9 (2×), 49.9, 46.6, 47.2, 36.1, 32.8, 32.3, 51.2, 57.4, 40.3, 26.6, 34.9, 53, 51, 48.2, 44.5, 39.6, 49.2, 46.7 (2×), 44.4, 51.4, 49.1, 41.4%”; the growth entry (0.25 µM, runs of 2016) was “inactive: 44.2 (2×), 42.3 (2×), 44.5 (3×), 43.8, 37.9, 40.2, 49.1 (2×), 41.9, 38.2, 37.6, 38.8 (3×), 36.2 (2×), 40.7, 49.9 (2×), 41.5, 39.3 (2×), 47.9, 40.3, 29.8, 44.8, 43.1, 41.7, 24.8, 39.1, 35.9 (2×), 48.6, 42.2, 39.8, 35.3, 40.1, 48.5 (2×), 46, 40.5, 50.9 (2×), 47.5 (2×), 50.2, 52.7, 45.9, 51.7 (2×), 47.8 (2×), 45, 45.2, 48.1, 48.7, 45.5, 46.2, 60.3, 53.3 (2×), 52.4, 53, 53.4, 57.2, 56.2, 54.2 (2×), 55.6, 51.4, 51.1, 54.4, 51.3, 52.8, 44, 48.8, 51.6, 55.8, 41.3%”; the growth result (0.25 µM, runs of 2017) was “inactive: 46.2, 43.5 (5×), 47.5 (2×), 53, 42.3, 38.4, 43 (3×), 40.7 (2×), 40.8, 42.5, 41.5, 41, 45 (2×), 42.6 (3×), 39.4, 39.6 (2×), 39.7 (3×), 38.5 (2×), 43.4 (2×), 47.3, 38.9, 41.7 (2×), 36.9, 42.9 (3×), 47.2, 41.3 (2×), 38.2 (2×), 34.5, 40.4, 48, 36.7, 37.7, 34.3, 33.2, 40.2, 45.1, 41.2 (3×), 49.1, 35.9, 38.6 (2×), 48.6, 42.7, 37.4, 39.1 (2×), 38.7, 37.5, 41.8 (2×), 40.6 (2×), 47.8, 43.9, 44.4, 43.8, 42.1, 36.1, 42, 52.8, 55.5, 48.4, 48.2, 43.2%”; the growth entry (0.25 µM, runs of 2018) was “inactive: 45.1 (2×), 44.2, 44.8, 42.3, 47.8, 48.5, 43, 41, 45.6 (2×), 43.9, 43.6, 50.6, 46.6 (2×), 42.9, 49.6 (2×), 38.9, 54.2, 49.3 (2×), 49.1, 51.3, 48.2 (2×), 49.5, 53.4, 44.4, 53.8, 55.8, 51.8, 56.3, 43.4, 34.2, 41.2, 45.8, 50.5, 40.3, 46.5, 47.7, 44.7, 40.7, 41.4, 48, 50, 48.6, 52.8, 46, 61.9, 53.6, 58.5, 24.3%”; the growth entry (0.25 µM, runs of 2019) was “inactive: 40.9, 33.7, 36.4, 34.6, 38.6, 43, 36.5, 40.5, 37.3, 33.2, 41.1, 36.6, 33.5, 42, 40.2, 42.8, 41.3, 31.5, 49, 42.1 (2×), 37.4, 43.6, 46.5, 37.2, 48.2, 56.2, 52.7, 39.4, 35.2, 42.9, 37.8, 40, 49.3, 49.4, 41.6, 61.1, 58.6, 40.1, 38.4, 41.5, 45, 47.3, 50.6, 49.6, 48.6, 44.9, 36.9, 37.7, 40.8%”; the growth result (0.25 µM, runs of 2020) is “inactive: 46.8 (2×), 40, 56.2, 55.5, 49.9, 40.7, 51, 53.2, 43, 44.4, 39.2, 41.2, 47.3, 43.1, 54.3, 49.5, 47, 47.7, 45.8, 49.3%”. Besides, the growth entry reads like this: (0.25 µM, runs of 2021) “inactive: 61.2, 61.1, 53.2, 53.5, 58.1, 52, 55.1, 50 (2×), 41.8 (2×), 42.6, 39.3 (2×), 55.8, 45.9, 60.5, 54.9, 43, 44.2, 46.8, 40.1, 46.5 (2×), 47, 43.9 (2×), 47.4, 46.4, 39.9 (2×), 60.6, 57.4, 44.9, 41.2, 38.4, 48.1, 54.2, 48.8, 54.8, 57, 40.7, 34.9, 40.8, 35.8, 19, 50.8, 49.5, 49.4, 37.1, 41.5%”; (0.25 µM, runs of 2022) “active: 4.42%, 5.84% and inactive: 10.3, 45.1, 48.7, 39.3, 22.4, 37.9, 44.5, 54.1, 41, 46, 48.6, 48.3, 44.6, 39.7, 37.3, 66.3, 74.5, 51.7, 65.7, 66.7, 87, 45.7, 44, 51.6, 45.2, 38.6%”; (25 µM, runs of 1991) “active: 4.93, 2.46, 0.25, -27.4, 2.62, 3.68, -11.7, 0, -18.7, -15.8, -5.84, 2.8, -27.5, 3.34, -11.9, -14.2, -6.51, -11.2% and inactive: 97.6%”; (25 µM, runs of 1992) “active: 0.605, 2.63, 1.99, -51.5, -21.4, -14.1 (2×), -18.9, 2.81, -7.32, 6.58, -33.5, -21.8, -36.6, -30.5, -31 (2×), 1.3, 0.731, -13, -8.91, -5.65, 5.66, 2.49, 7.49, 4.22, -34.3, -2.81, -57.5, -16, -90.3, -23.6, -67.5, -53.9, -20.3 (2×), -1.95, -17.2, -1.74, 1.45 (2×), -11.2, 0, 3.65 (2×), 5.26, 1.12, -19.2, -5.52, -18.4, -3.46, -23.1, -22.2, -11.7, 2.18, 0.496, 3.35, 2.51, -6.35, -3.12, -42.3, 0.797, -2.26, 3.21, 3.49, 0.449, -45.3, -7.33, -4.72, -16.7, -7.41, 1.17, -0.167, 3.3, -19.1 (3×), -2.02, -21, -0.769, 3.95, -7.87, 6.52, 0.432, -6.14, -16.3, 1.04, -44.3, 0.943, -25.8, 0.873, -6.7, -2.51, -18.7, -2.37, -0.714, 2.56, -32.4, -23.4, -25.4, -1.4, -19.6, -3.86, -25.9, -12.7, -11.4, -7.64, -36, -15.4, 1.29, -17, 2.41, 1.55, 0.679, 1.64, -32, 3.5, -14.2, -28.1% and inactive: 15.1, 18.8, 13.1, 41.6%”; (25 µM, runs of 1993) “active: 1.42, -14.8, -7.94, -40.6, -17.6, -5.76, 6, -34.4, -43.8, 0.0385, -21, -0.599, -16.8, -36.8, -37.5, -2.91, -53.5, -6.76, -21.6, -37.7, 2.94, -0.955, -30.9, 0.966, -25.7 (2×), -27, 0.41, -29.8, 1.73, -8.59, 5.38, -30.5, 0.346, 7.5, -55.1, 0.363, 4.9, -11.7, -10.1, -21.5, -0.49, -15.5, 1.3, 2.66, -8.6%”; (25 µM, runs of 1994) “active: 7.82, -5.84, -6.25, 4.57, 0.936, -25.7 (2×), -53.3, 6.68, -22.7, 1.87, -15.5, 5.57, 4.06, -0.51, -11.1, 1.13, -45.5, -39.7, -94.2, -5.16, 2.45, 0.756, -6.51, -12.2, 9.92, -2.84, -9.18% and inactive: 10.6%”. For the same compound, the growth entry is “active: -10, 4.71, -21.3, 7.38, -9.67, -7.49, 4.58, 7.15, 5.13, -24.5, 0.134, -25.7, -20.4, 0.724, -9.27, 0.674, -14.5, 2.52, -8.73, -6.4, -34.4, -26.3, -21.7, -23.4, 1.45, -18.6, 2.34, 1.99, -2.22, 1.61, 1.97, -15.6, 0.594, 0.357, 0.801, -19, -45.4, -14.7, 1.05, -5.62%” (25 µM, runs of 1995); “active: -21.7 (2×), -25, 4.45, 1.26, -33, 1.68, -23.1, -48.3, -29.1, 9.57, 3.02, -0.296, -39.7, -36.9, 0.282, -24, -22.4, -18.4, 8.38, -11.9, -20.7, -10.5, -3.36, -59.3, -45.4, 5.16, -58.6, -41.5, -4.65, -24.7, 4.43, 3.71, -36.1, 1.77, 2.91, 6.38, 1.3, -6.88, -25.5, 0.853, 3.27, 1.69, 4.72, -14.5, 7.29, 3.37, -27.8, -3.75, -27, 0.547% and inactive: 106%” (25 µM, runs of 1996); “active: -12.6, -48.1, 5.2, -20.9, -3.08, 4.68, -26.4, -15.5, -19.5, 7.03, -1.33, -24.3, 2.78, -48.8, 2.73, -9.92, -56.4, -32.5, 0.491, 2.46, -29.5, 7.3, 2.7, -35.2, 1.5, -14.7, 1.1, -30.2, -9.6, -33.2, -32.4, 4.48, 0.915, -18.9, 1.92, 2.31, -28% and inactive: 23, 11.2, 10.7, 12.9%” (25 µM, runs of 1997).

For the origin of these results see PubChem BioAssay (NCI).
